# Measured values taken from the supplement of paper PMC11417369.
# ± gives the standard deviation of the averaged measurements. Some of the results follow.
# Tested on: PfAP2-I AP2 domain 3 (GST-tagged)
# Test: gcPBM binding intensity (ln(normalized median fluorescence intensity)); higher = stronger DNA binding
# How it was run: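 Binding intensity is the highest Masliner-normalised natural-log median intensity over replicate spots in either probe orientation. To obtain it, GST-tagged P. falciparum DNA-binding domains made in E. coli were incubated for 1 h on an Agilent 4 × 180k array of primer-extended double-stranded 36-bp intergenic genomic probes plus negative controls. Detection used Alexa488 anti-GST antibody with scanning at 488 nm.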
row,Sequence,gcPBM binding intensity (ln)
1,AATTCTTTTTATATATTAAATATTATTAATAAGTCA [CACACA_negctrl_site1488],7.46 ± 0.57
2,ACACATTATAACAAGGTGCAATTTTTATACACATGT [GTGCAC_site9866],9.515 ± 0.021
3,TTTTAAAATATCAACACACTCATTATTTTCTATATT [CACACA_site4740],7.7 ± 0.47
4,AAAATAAAAACAAAATCACACATTCCAGTTTTTTTT [CACACA_site5356],7.5 ± 0.63
5,TCATTCTATCTGTTCACACATACACAAAAAAAAAAA [CACACA_site5141],8.21 ± 0.38
6,AAGGTCATTTTATATTGTACATGAAATTGTTATGTA [XGTACX_site187],7.61 ± 0.51
7,ATATACAGATAAATGTGTACTTAAATCTATTATATT [XGTACX_site2632],7.58 ± 0.3
8,ATATATTTTGTATGTAGTACAATTTTATAATCATAT [XGTACX_site8373],7.88 ± 0.18
9,TCAATTTGGAACGGTATGCACTAATTTTATATTTTT,9.02 ± 0.19
10,TATTACAAATATGGCACACATATATATATATATATT [CACACA_site3268],8.69 ± 0.2
11,AATAATGAATACACATGTACAAAAATTTTTCTTACT [XGTACX_site1962],7.79 ± 0.62
12,AAAAAAAACAGACACACACACAAATATATAAAAATA [CACACA_site1172],7.77 ± 0.48
13,TTTTTGAAATAATGAAACAGCAAAAAAACAAAAATA [CACACA_negctrl_site221],8.04 ± 0.61
14,TATTAAAAGAAAATAACACACACAAAAAAAAAAAAA [CACACA_site8661],7.96 ± 0.61
15,AAAATAAGCGTGAAACGTACATATTACATTATTATA [XGTACX_site8914],7.51 ± 0.54
16,ATAATATATATATAGTGTACATTTGAATATATTTGA [XGTACX_site583],7.67 ± 0.45
17,GTATACTTAACATTCACACATATATATATATATAAA [CACACA_site4596],7.82 ± 0.63
18,AATTATTTACCTTCTTTGAAAGAACAAATGATACAA [CACACA_negctrl_site1315],7.82 ± 0.59
19,ATATATATATATATATGTACTTATAATTCTTCAATT [XGTACX_site5627],9.24 ± 0.4
20,ATATATCAACTCATATTATTTTCTTTTATTATTTAT [CACACA_negctrl_site276],7.56 ± 0.76
21,ATTTATCTATAATATACACACATATAACAGACATAT [CACACA_site6469],7.88 ± 0.28
22,TGATAGCTAGCTATATGTACATATATATATATATAT [XGTACX_site393],9.41 ± 0.68
23,CTTTCGGTTGGAGAGGTGCGCTTCTCCTTTATAATA,9.22 ± 0.27

row,Sequence,gcPBM binding intensity (ln)
1,AAACATCATAAATATACACACATATATATATATATA [CACACA_site620],9.45 ± 0.57
2,TACACAAAATTTAAATGTACATTAAATATATGATGT [XGTACX_site2140],7.82 ± 0.47
3,CGAAACCATATGTACACACACATATATAAATATGTA [CACACA_site7082],7.97 ± 0.25
4,AAAACGTATCACAAAAGTACAGATAGTTATAATATA [XGTACX_site185],7.62 ± 0.56
5,TTTATATTTCTCTTTAGTACATATTATATTCTTTTA [XGTACX_site1618],7.67 ± 0.57
6,AATGAAAATAAATTAACACACAATTTTAATATTGTT [CACACA_site1306],7.34 ± 0.61
7,TCTTAAATATACAGTTGTACTAAACAAAAAAAAAAA [XGTACX_site2639],8.07 ± 0.76
8,TATAAAAAATGATAAAGTACTTTATACACACAAATA [XGTACX_site8486],8.06 ± 0.46
9,AAAATATACACACATATGTATATAATATTATATGTA [GTGCAC_negctrl_site496],7.7 ± 0.38
10,CTAAAACAATAAATCACACATACATAGGATAATATA [CACACA_site4247],7.54 ± 0.65
11,ATTTATAATCTGTATAGTACACATATATACATGGTT [XGTACX_site2714],7.75 ± 0.64
12,TTGGCATACAGACACACACACACACGCCCACATATA [CACACA_site6425],8.04 ± 0.43
13,TTTTTTTTTTGTAGTTGTACGAACTAGCTATTTATG [XGTACX_site692],7.94 ± 0.31
14,ATATATATATATATATGTACATATATATATTTTTTA [XGTACX_site5987],9.43 ± 0.24
15,CAAAAAAACAAACACACACACACACCCATATATATA [CACACA_site3653],8.64 ± 0.59
16,TTATTTTTTCAAGAATGTACTTACGAATTGTCGTAT [XGTACX_site1363],7.39 ± 0.42
17,ATCAATACACATATATGTACATATAATAATTATCTT [XGTACX_site662],8.35 ± 0.41
18,TAATTACCATATGGTACACACATATATATATGTATA [CACACA_site3487],8.01 ± 0.38
19,TTATATTAAACAAACACACACATATATATATATATA [CACACA_site2382],9.48 ± 0.67
20,TTAACAAATGGACACACACACACACCCAAAAAAAAA [CACACA_site4443],8.41 ± 0.2
21,TGTTACATATTATAAATACATTAACTATTATATGTA [CACACA_negctrl_site1735],7.46 ± 0.49
22,TATATATATATATATTGTACATATTGTATATATTGT [XGTACX_site3212],9.22 ± 0.42
23,TATATATATATTTATACACACATTAGTGTATCCATG [CACACA_site5609],9.08 ± 0.23

row,Sequence,gcPBM binding intensity (ln)
1,TTTATAAAAAATTTTTTTTTTTTTTTTTAAATATAT [CACACA_negctrl_site146],7.22 ± 0.41
2,AAATATATATATATAATACACACTAAAGTAACATAA [CACACA_site2870],7.83 ± 0.7
3,TGTCGACATGTAGGTAGTACTATTAAAAATAATGAT [XGTACX_site3849],7.92 ± 0.6
4,ATAGAAGGACATATAACACACATATATTATAAGTAT [CACACA_site5461],7.98 ± 0.31
5,GGATGATTAAGGGGGACACACGTTTATATATTTATA [CACACA_site4342],9.05 ± 0.35
6,TAAATATAAACACAAACACACACATATATATATATA [CACACA_site7978],9.35 ± 0.23
7,ATATATTATTATATATGTACTTATTTATAAATGATT [XGTACX_site7597],7.63 ± 0.32
8,AAATAGGGAATTTATGCACACAGTTAAGGGGGAAAA [CACACA_site2071],9.78 ± 0.11
9,AATAAATTAATAAGGTGTACATAAATAATTTATATA [XGTACX_site8278],7.92 ± 0.26
10,CATACTCTACATAGATGTACTCATTTAAAAAAAAAA [XGTACX_site6945],7.83 ± 0.23
11,ATTTTTTTTTTTTTTTTTTTTTTTTTCTCTCTCACT [CACACA_negctrl_site1046],7.64 ± 0.54
12,ATTCAAAAGGTTTAATGTACGTGATGTTTCACAAAT [XGTACX_site784],7.74 ± 0.5
13,TGTTATTAAAACGTGACACACAATATATATATATAT [CACACA_site3539],9.23 ± 0.3
14,TTTTTTTTTAAGCAAAGGAAATCAAAATAAAAATAT [CACACA_negctrl_site719],7.92 ± 0.56
15,TTTTTTTTTTTTTTTTGTACACATAGTAAAAATTAA [XGTACX_site2410],8.38 ± 0.82
16,TTATAAATTATATATATGACCAATAATTGTGAGCAT [CACACA_negctrl_site725],8.02 ± 0.57
17,TTTTTTTTTTATTCTACACACATATGTTTTTATATG [CACACA_site182],7.98 ± 0.86
18,TATATATATATATGTTGTACTTTTAATTTAAATGTA [XGTACX_site4239],9.54 ± 0.5
19,TAAATACCTATATGGCGTACTATTATCATAGTATAT [XGTACX_site5423],7.54 ± 0.56
20,TATTTATTATGATACTCATATTATTCTATGATTAAA [GTGCAC_negctrl_site486],7.49 ± 0.41
21,CGTAAATTTTTCTAAGTGCATGTTAATTTTTCAATT,9.01 ± 0.67
22,ATTTTCAAATTAAAATGTACAAATGAAAGAAAGGGA [XGTACX_site7048],8.03 ± 0.69
23,TGAAATAAAATTTGTACACACATATATATATATATA [CACACA_site586],9.36 ± 0.38

row,Sequence,gcPBM binding intensity (ln)
1,GTGAATCCTAAGTGTACACATCTTACAGATATATAT [CACACA_site4836],8.28 ± 0.58
2,TTCCTTCATTGGAAAAGTACACAATATTGTCGTTTA [XGTACX_site8057],7.71 ± 0.37
3,ATATAGGTATAATACACACACTAATATGTAACTGTA [CACACA_site7011],7.89 ± 0.44
4,GCACAAATCATCAAATGTACAGAAAATGCTGTCAAT [XGTACX_site5037],7.67 ± 0.66
5,TTAAAAATAAAACAAAGTACTCAAGTTATTGTCTTT [XGTACX_site1584],7.51 ± 0.72
6,TATGATATGTATGGAAGTACGAAGAGGGATGATCAG [XGTACX_site1677],8.15 ± 0.73
7,CACGCATACAGACACACACACACACCCATATATATA [CACACA_site636],8.31 ± 0.66
8,AACTATATATATAATTCACACATGTTTTAAAATTTT [CACACA_site4971],7.97 ± 0.67
9,CTATGCATTTATAGTGCATGTAAAATATAAGATAAT [TGCATGCA_site71],9.86 ± 0.085
10,TACTATGCCCCATATAAACACACAAATAAAAAGAAT [CACACA_site8857],8.48 ± 0.38
11,TATAAACCTACATACACACATACAATAAGTAAAATG [CACACA_site1921],7.88 ± 0.71
12,ATGTATCATAAGAACTGTGTGGTTACAGACACGAAC [GTGCAC_negctrl_site416],8.27 ± 0.85
13,TTTCCTTTTTTAATATGTACACATATTATTATATCT [XGTACX_site3079],7.92 ± 0.31
14,ATATATTCTTATTGCTGTACACATATTTTCTAAAAA [XGTACX_site4851],8.72 ± 0.54
15,AACGCAGTTTAATATACACACCAAAAAAAAAAAAAG [CACACA_site5643],7.89 ± 0.55
16,TTTCTTAAATATATGCGTACTCAAAATTGTTCTACA [XGTACX_site7995],7.73 ± 0.33
17,AAAAATATAATATAATGTACACATAAACAAAAAAAA [XGTACX_site3658],7.92 ± 0.57
18,TAACCACAAAAATAAAATCAAAAAAAAAAAAAAAAA [CACACA_negctrl_site1727],7.99 ± 0.58
19,ATATATATATATTTCGCACACATAATCTTATTAAAT [CACACA_site2579],9.22 ± 0.31
20,TAAAATAAAACAAACACACACACACCGACACAAAAA [CACACA_site5993],8.25 ± 0.14
